# Laboratory results published in PubChem BioAssay (NCI).
#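 Method: 48-hour compound exposure of cells in 96-well plates, five concentrations, linear interpolation of endpoints. Here, GI50 denotes the concentration required for 50% inhibition of growth. The concentration for full growth arrest is given as TGI.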
# Tested on: NCI-H322M lung
# Test: inhibition of tumour cell growth, NCI panel, 48 h
Structure (SMILES),GI50,TGI
C#C[C@]1(O)CC[C@H]2[C@@H]3CC=C4c5sc(Nc6cc(OC)ccc6OC)nc5CC[C@]4(C)[C@H]3CC[C@@]21C,3.84 µM,> 100 µM
Cc1nc(N)sc1-c1csc(Nc2ccc(C(F)(F)F)cc2)n1,11.1 µM,23.1 µM
COc1ccc(Cn2cc3c(c2-c2cc(OC)c(OC)c(OC)c2)CCc2c(CN4CCOCC4)noc2-3)cc1,> 100 µM,> 100 µM
CN(c1ccc(Br)cc1)S(=O)(=O)c1ccc(-c2cnc(C3CC3)o2)cc1,3.63 µM,> 100 µM
